Measured values published in PubChem BioAssay AID623887 (Johns Hopkins Ion Channel Center, 2012).
A number of entries come with more than one value. The other results are left out here. There may be further records. The values listed for one entry are repeats (runs, samples, wells, individuals or studies). A tag in brackets gives the origin of a value. The letters are not those of the source and start again with each entry.

Target: Potassium channel subfamily K member 9 (Homo sapiens) (UniProt Q9NPC2)
Chain of UniProt Q9NPC2 (Q9NPC2 whole entry, looked up): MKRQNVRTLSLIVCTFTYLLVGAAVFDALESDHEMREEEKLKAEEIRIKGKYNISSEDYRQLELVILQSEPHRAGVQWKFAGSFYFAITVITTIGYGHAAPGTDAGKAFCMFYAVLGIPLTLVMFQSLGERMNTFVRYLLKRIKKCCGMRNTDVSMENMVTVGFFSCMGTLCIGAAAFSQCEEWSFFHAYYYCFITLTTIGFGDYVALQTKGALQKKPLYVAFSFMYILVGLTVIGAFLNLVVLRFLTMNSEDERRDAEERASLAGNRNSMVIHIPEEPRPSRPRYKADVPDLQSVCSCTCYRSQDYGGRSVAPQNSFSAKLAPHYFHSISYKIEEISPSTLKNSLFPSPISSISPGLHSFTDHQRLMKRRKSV
Experiment: concentration-dependent blockade of KCNK9 channel – cell-based, round 4, SAR follow-up (AID 623887)
Conditions: HEK293-KCNK9 thallium flux, FluxOR fluorescence
Outline: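 System: Tetracycline-induced HEK293 cells stably expressing the KCNK9 channel | Also added: Potassium/thallium sulfate stimulus buffer (5x stock) | Doses: Concentration series | Schedule: 90 min dye loading, then 20 min compound preincubation at room temperature | Detection: Kinetic FluxOR fluorescence of thallium influx, 110 s after stimulus | Repeats: Replicate measurements at each compound concentration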

IC50: 12.8 µM [sample A] and 821 nM [sample B]
Structure (SMILES): C[C@H]([C@@H]1CC2CC[C@H]1C2)n1c(-c2ccsc2)n[nH]c1=S
